The other results are listed elsewhere or left out. Binding of human transcription factors and regulators to the viral nucleoprotein by AlphaScreen, crude cell-free proteins, amounts not normalised, one pass. Fold of the Venus control; higher = more signal. No active / inactive call. Single-pass screen; sequences are the whole Swiss-Prot entries looked up by name.
B1: FOXH1, O75593 (protein)
chain: MGPCSGSRLGPPEAESPSQPPKRRKKRYLRHDKPPYTYLAMIALVIQAAPSRRLKLAQIIRQVQAVFPFFREDYEGWKDSIRHNLSSNRCFRKVPKDPAKPQAKGNFWAVDVSLIPAEALRLQNTALCRRWQNGGARGAFAKDLGPYVLHGRPYRPPSPPPPPSEGFSIKSLLGGSGEGAPWPGLAPQSSPVPAGTGNSGEEAVPTPPLPSSERPLWPLCPLPGPTRVEGETVQGGAIGPSTLSPEPRAWPLHLLQGTAVPGGRSSGGHRASLWGQLPTSYLPIYTPNVVMPLAPPPTSCPQCPSTSPAYWGVAPETRGPPGLLCDLDALFQGVPPNKSIYDVWVSHPRDLAAPGPGWLLSWCSL
B2: IKBKB, O14920 (protein)
chain: MSWSPSLTTQTCGAWEMKERLGTGGFGNVIRWHNQETGEQIAIKQCRQELSPRNRERWCLEIQIMRRLTHPNVVAARDVPEGMQNLAPNDLPLLAMEYCQGGDLRKYLNQFENCCGLREGAILTLLSDIASALRYLHENRIIHRDLKPENIVLQQGEQRLIHKIIDLGYAKELDQGSLCTSFVGTLQYLAPELLEQQKYTVTVDYWSFGTLAFECITGFRPFLPNWQPVQWHSKVRQKSEVDIVVSEDLNGTVKFSSSLPYPNNLNSVLAERLEKWLQLMLMWHPRQRGTDPTYGPNGCFKALDDILNLKLVHILNMVTGTIHTYPVTEDESLQSLKARIQQDTGIPEEDQELLQEAGLALIPDKPATQCISDGKLNEGHTLDMDLVFLFDNSKITYETQISPRPQPESVSCILQEPKRNLAFFQLRKVWGQVWHSIQTLKEDCNRLQQGQRAAMMNLLRNNSCLSKMKNSMASMSQQLKAKLDFFKTSIQIDLEKYSEQTEFGITSDKLLLAWREMEQAVELCGRENEVKLLVERMMALQTDIVDLQRSPMGRKQGGTLDDLEEQARELYRRLREKPRDQRTEGDSQEMVRLLLQAIQSFEKKVRVIYTQLSKTVVCKQKALELLPKVEEVVSLMNEDEKTVVRLQEKRQKELWNLLKIACSKVRGPVSGSPDSMNASRLSQPGQLMSQPSTASNSLPEPAKKSEELVAEAHNLCTLLENAIQDTVREQDQSFTALDWSWLQTEEEEHSCLEQAS
B3: CEBPD, P49716 (protein)
chain: MSAALFSLDGPARGAPWPAEPAPFYEPGRAGKPGRGAEPGALGEPGAAAPAMYDDESAIDFSAYIDSMAAVPTLELCHDELFADLFNSNHKAGGAGPLELLPGGPARPLGPGPAAPRLLKREPDWGDGDAPGSLLPAQVAACAQTVVSLAAAGQPTPPTSPEPPRSSPRQTPAPGPAREKSAGKRGPDRGSPEYRQRRERNNIAVRKSRDKAKRRNQEMQQKLVELSAENEKLHQRVEQLTRDLAGLRQFFKQLPSPPFLPAAGTADCR
B4: SCRT1, Q9BWW7 (protein)
chain: MPRSFLVKKVKLDAFSSADLESAYGRARSDLGAPLHDKGYLSDYVGPSSVYDGDAEAALLKGPSPEPMYAAAVRGELGPAAAGSAPPPTPRPELATAAGGYINGDAAVSEGYAADAFFITDGRSRRKASNAGAAAAPSTASAAAPDGDAGGGGGAGGRSLGSGPGGRGGTRAGAGTEARAGPGAAGAGGRHACGECGKTYATSSNLSRHKQTHRSLDSQLARRCPTCGKVYVSMPAMAMHLLTHDLRHKCGVCGKAFSRPWLLQGHMRSHTGEKPFGCAHCGKAFADRSNLRAHMQTHSAFKHFQCKRCKKSFALKSYLNKHYESACFKGGAGGPAAPAPPQLSPVQA
B5: ATF5, Q9Y2D1 (protein)
chain: MSLLATLGLELDRALLPASGLGWLVDYGKLPPAPAPLAPYEVLGGALEGGLPVGGEPLAGDGFSDWMTERVDFTALLPLEPPLPPGTLPQPSPTPPDLEAMASLLKKELEQMEDFFLDAPPLPPPSPPPLPPPPLPPAPSLPLSLPSFDLPQPPVLDTLDLLAIYCRNEAGQEEVGMPPLPPPQQPPPPSPPQPSRLAPYPHPATTRGDRKQKKRDQNKSAALRYRQRKRAEGEALEGECQGLEARNRELKERAESVEREIQYVKDLLIEVYKARSQRTRSC
B6: DACH1, Q9UI36 (protein)
chain: MAVPAALIPPTQLVPPQPPISTSASSSGTTTSTSSATSSPAPSIGPPASSGPTLFRPEPIASAAAAAATVTSTGGGGGGGGSGGGGGSSGNGGGGGGGGGGSNCNPNLAAASNGSGGGGGGISAGGGVASSTPINASTGSSSSSSSSSSSSSSSSSSSSSSSSCGPLPGKPVYSTPSPVENTPQNNECKMVDLRGAKVASFTVEGCELICLPQAFDLFLKHLVGGLHTVYTKLKRLEITPVVCNVEQVRILRGLGAIQPGVNRCKLISRKDFETLYNDCTNASSRPGRPPKRTQSVTSPENSHIMPHSVPGLMSPGIIPPTGLTAAAAAAAAATNAAIAEAMKVKKIKLEAMSNYHASNNQHGADSENGDMNSSVGSSDGSWDKETLPSSPSQGPQASITHPRMPGARSLPLSHPLNHLQQSHLLPNGLELPFMMMPHPLIPVSLPPASVTMAMSQMNHLSTIANMAAAAQVQSPPSRVETSVIKERVPDSPSPAPSLEEGRRPGSHPSSHRSSSVSSSPARTESSSDRIPVHQNGLSMNQMLMGLSPNVLPGPKEGDLAGHDMGHESKRMHIEKDETPLSTPTARDSLDKLSLTGHGQPLPPGFPSPFLFPDGLSSIETLLTNIQGLLKVAIDNARAQEKQVQLEKTELKMDFLRERELRETLEKQLAMEQKNRAIVQKRLKKEKKAKRKLQEALEFETKRREQAEQTLKQAASTDSLRVLNDSLTPEIEADRSGGRTDAERTIQDGRLYLKTTVMY
B7: ETV2, O00321 (protein)
chain: MDLWNWDEASPQEVPPGNKLAGLEGAKLGFCFPDLALQGDTPTATAETCWKGTSSSLASFPQLDWGSALLHPEVPWGAEPDSQALPWSGDWTDMACTAWDSWSGASQTLGPAPLGPGPIPAAGSEGAAGQNCVPVAGEATSWSRAQAAGSNTSWDCSVGPDGDTYWGSGLGGEPRTDCTISWGGPAGPDCTTSWNPGLHAGGTTSLKRYQSSALTVCSEPSPQSDRASLARCPKTNHRGPIQLWQFLLELLHDGARSSCIRWTGNSREFQLCDPKEVARLWGERKRKPGMNYEKLSRGLRYYYRRDIVRKSGGRKYTYRFGGRVPSLAYPDCAGGGRGAETQ
B8: AFF4, Q9UHB7 (protein)
chain: MNREDRNVLRMKERERRNQEIQQGEDAFPPSSPLFAEPYKVTSKEDKLSSRIQSMLGNYDEMKDFIGDRSIPKLVAIPKPTVPPSADEKSNPNFFEQRHGGSHQSSKWTPVGPAPSTSQSQKRSSGLQSGHSSQRTSAGSSSGTNSSGQRHDRESYNNSGSSSRKKGQHGSEHSKSRSSSPGKPQAVSSLNSSHSRSHGNDHHSKEHQRSKSPRDPDANWDSPSRVPFSSGQHSTQSFPPSLMSKSNSMLQKPTAYVRPMDGQESMEPKLSSEHYSSQSHGNSMTELKPSSKAHLTKLKIPSQPLDASASGDVSCVDEILKEMTHSWPPPLTAIHTPCKTEPSKFPFPTKESQQSNFGTGEQKRYNPSKTSNGHQSKSMLKDDLKLSSSEDSDGEQDCDKTMPRSTPGSNSEPSHHNSEGADNSRDDSSSHSGSESSSGSDSESESSSSDSEANEPSQSASPEPEPPPTNKWQLDNWLNKVNPHKVSPASSVDSNIPSSQGYKKEGREQGTGNSYTDTSGPKETSSATPGRDSKTIQKGSESGRGRQKSPAQSDSTTQRRTVGKKQPKKAEKAAAEEPRGGLKIESETPVDLASSMPSSRHKAATKGSRKPNIKKESKSSPRPTAEKKKYKSTSKSSQKSREIIETDTSSSDSDESESLPPSSQTPKYPESNRTPVKPSSVEEEDSFFRQRMFSPMEEKELLSPLSEPDDRYPLIVKIDLNLLTRIPGKPYKETEPPKGEKKNVPEKHTREAQKQASEKVSNKGKRKHKNEDDNRASESKKPKTEDKNSAGHKPSSNRESSKQSAAKEKDLLPSPAGPVPSKDPKTEHGSRKRTISQSSSLKSSSNSNKETSGSSKNSSSTSKQKKTEGKTSSSSKEVKEKAPSSSSNCPPSAPTLDSSKPRRTKLVFDDRNYSADHYLQEAKKLKHNADALSDRFEKAVYYLDAVVSFIECGNALEKNAQESKSPFPMYSETVDLIKYTMKLKNYLAPDATAADKRLTVLCLRCESLLYLRLFKLKKENALKYSKTLTEHLKNSYNNSQAPSPGLGSKAVGMPSPVSPKLSPGNSGNYSSGASSASASGSSVTIPQKIHQMAASYVQVTSNFLYATEIWDQAEQLSKEQKEFFAELDKVMGPLIFNASIMTDLVRYTRQGLHWLRQDAKLIS
B9: ZNF134, P52741 (protein)
chain: MTLVTAGGAWTGPGCWHEVKDEESSSEQSISIAVSHVNTSKAGLPAQTALPCDICGPILKDILHLDEHQGTHHGLKLHTCGACGRQFWFSANLHQYQKCYSIEQPLRRDKSEASIVKNCTVSKEPHPSEKPFTCKEEQKNFQATLGGCQQKAIHSKRKTHRSTESGDAFHGEQMHYKCSECGKAFSRKDTLVQHQRIHSGEKPYECSECGKAFSRKATLVQHQRIHTGERPYECSECGKTFSRKDNLTQHKRIHTGEMPYKCNECGKYFSHHSNLIVHQRVHNGARPYKCSDCGKVFRHKSTLVQHESIHTGENPYDCSDCGKSFGHKYTLIKHQRIHTESKPFECIECGKFFSRSSDYIAHQRVHTGERPFVCSKCGKDFIRTSHLVRHQRVHTGERPYECSECGKAYSLSSHLNRHQKVHTAGRL

Biological target: nucleoprotein N of Crimean-Congo hemorrhagic fever virus
Test: AlphaScreen luminescence signal relative to Venus negative control (fold); higher = stronger binding to CCHFV N
Experimental: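 AlphaScreen binding of cell-free made, FLAG-GST-tagged human transcription factors and regulators (crude translation products) to biotinylated N protein; signal as fold of the FLAG-GST-Venus control. One pass.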

**Q.** With B1 as the binder, how does the AlphaScreen luminescence signal read?
**A.** Its AlphaScreen luminescence signal is 1.81.

**Q.** How did the AlphaScreen luminescence signal turn out when B2 was run?
**A.** The AlphaScreen luminescence signal was 2.23.

**Q.** How did the AlphaScreen luminescence signal turn out when B3 was run?
**A.** The AlphaScreen luminescence signal was 2.65.

**Q.** Which AlphaScreen luminescence signal does the source give for B4 here?
**A.** The AlphaScreen luminescence signal was 1.3.

**Q.** With B5 as the binder, how does the AlphaScreen luminescence signal read?
**A.** The AlphaScreen luminescence signal was 4.88.

**Q.** How did the AlphaScreen luminescence signal turn out when B6 was run?
**A.** The AlphaScreen luminescence signal was 2.33.

**Q.** For B7, which AlphaScreen luminescence signal is on record?
**A.** Its AlphaScreen luminescence signal is 2.6.

**Q.** B8 was tested. Which AlphaScreen luminescence signal did it give?
**A.** The AlphaScreen luminescence signal was 1.95.

**Q.** For B9, which AlphaScreen luminescence signal is on record?
**A.** Its AlphaScreen luminescence signal is 1.49.
